# Laboratory results from PubChem BioAssay (Tox21).
# Values joined by “and” are separate entries in the source; they are usually repeats but may differ in a detail not shown here. Equal entries are not always repeated. The inconclusive results got no clear call from the source; some entries with a clear call stand among them for comparison. For some assays here: Potencies of inconclusive entries are doubtful fits and often do not repeat. Active and inactive are the calls of the source. Unless noted, calls follow the shape of the dose curve; as a rule, active = well fitted curve in the direction sought with a large enough effect in the repeat runs; inconclusive = weak or mixed curves; inactive = no such curve, though single readings can be large; an effect the other way counts as inactive or inconclusive.
# Experiments:
# [1] = qHTS assay for small molecule agonists of the p53 signaling pathway (AID 651631; calls by dose curve; also: nearly all actives have a fitted effect of over 15% in size; as to activation: % is scaled to controls: 0 for no effect and ±100 for the full control effect); conditions: HCT-116 p53RE-bla reporter, beta-lactamase FRET ratio, 16 h; activation: at 73.3 µM (top of the series) unless noted
# In short: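 HCT-116 cells carrying a beta-lactamase reporter under p53 response elements were dosed with compound for 16 h at 37 °C. LiveBLAzer B/G FRET substrate was then added for 2 h at room temperature, and fluorescence intensity was read to detect pathway agonism.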
# [2] = qHTS assay for small molecule disruptors of the mitochondrial membrane potential (AID 720635); conditions: HepG2 mitochondrial membrane potential, Mito-MPS dye ratio; as to ratio activity, negative = MMP loss: % is scaled to controls: 0 for no effect and ±100 for the full control effect
# In short: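 Mitochondrial membrane potential tracked with Mito-MPS dye, red aggregates (ex 540/em 590 nm) against green monomers (ex 490/em 535 nm). Compound treatment 1 hr at 37C, dye 30 min in HepG2.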
# [3] = molecular target: Glucocorticoid receptor (Homo sapiens) (UniProt P04150); experiment: qHTS assay to identify small molecule agonists of the glucocorticoid receptor (GR) signaling pathway (AID 720691; active = well fitted activation curve with a large enough effect in the signal ratio in the repeat runs, not every such curve was filed as active; inconclusive = weak or mixed curves, or effect the other way; inactive = no such curve, though single readings can be large or run the other way; the % refers to the signal ratio; as to activation: % is scaled to controls: 0 for no effect and ±100 for the full control effect); conditions: GR-bla HeLa, beta-lactamase reporter ratio, 18 h; activation: at 62.4 µM (top of the series) unless noted
# Sequence of UniProt P04150 (P04150 whole entry, looked up): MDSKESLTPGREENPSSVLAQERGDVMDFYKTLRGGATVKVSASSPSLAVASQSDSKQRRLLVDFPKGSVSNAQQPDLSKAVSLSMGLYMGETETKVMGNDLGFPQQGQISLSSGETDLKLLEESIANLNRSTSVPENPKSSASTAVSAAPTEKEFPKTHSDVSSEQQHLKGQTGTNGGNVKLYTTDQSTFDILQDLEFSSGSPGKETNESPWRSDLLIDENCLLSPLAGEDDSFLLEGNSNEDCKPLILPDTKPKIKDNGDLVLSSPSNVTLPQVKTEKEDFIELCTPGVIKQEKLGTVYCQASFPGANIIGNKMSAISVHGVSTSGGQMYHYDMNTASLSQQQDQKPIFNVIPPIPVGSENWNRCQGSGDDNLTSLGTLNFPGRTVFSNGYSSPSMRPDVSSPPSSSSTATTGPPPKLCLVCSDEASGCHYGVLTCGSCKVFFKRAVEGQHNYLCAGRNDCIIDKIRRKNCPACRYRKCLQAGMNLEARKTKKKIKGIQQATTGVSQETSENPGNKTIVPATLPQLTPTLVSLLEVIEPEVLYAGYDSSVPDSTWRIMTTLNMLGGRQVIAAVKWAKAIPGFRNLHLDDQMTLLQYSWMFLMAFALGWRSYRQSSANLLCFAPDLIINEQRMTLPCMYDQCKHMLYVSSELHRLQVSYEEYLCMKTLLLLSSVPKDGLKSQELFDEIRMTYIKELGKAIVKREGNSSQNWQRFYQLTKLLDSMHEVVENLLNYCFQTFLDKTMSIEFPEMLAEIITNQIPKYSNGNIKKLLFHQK
# In short: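 HeLa GR-bla reporter line; cells pre-incubated 4 h, compound in DMSO 18 h at 37 C; LiveBLAzer B/G FRET substrate 2 h RT; fluorescence intensity read-out.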
# [4] = molecular target: Glucocorticoid receptor (Homo sapiens) (UniProt P04150); experiment: qHTS assay to identify small molecule antagonists of the glucocorticoid receptor (GR) signaling pathway (AID 720692; active = well fitted inhibition curve with a large enough effect in the signal ratio in the repeat runs, not every such curve was filed as active; inconclusive = weak or mixed curves, or effect the other way; inactive = no such curve, though single readings can be large or run the other way; the % refers to the signal ratio; as to activity change, negative = inhibition: % is scaled to controls: 0 for no effect and ±100 for the full control effect); conditions: GR-bla HeLa, beta-lactamase FRET ratio, dexamethasone-stimulated, 18 h; activity change, negative = inhibition: at 58.5 µM (top of the series) unless noted
# In short: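 Read-out: beta-lactamase FRET substrate fluorescence, 2 h at room temperature, in HeLa cells stably carrying a GRE-driven bla reporter. Compounds were co-incubated with 5 nM dexamethasone agonist (final) for 18 h at 37 C.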
# [5] = qHTS assay to identify small molecule antagonists of the glucocorticoid receptor (GR) signaling pathway - cell viability counter screen (AID 720693); conditions: GR-bla HeLa viability, CellTiter-Glo luminescence, 18 h, with 5 nM dexamethasone present; viability change, negative = cytotoxic: at 58.5 µM (top of the series); also: nearly all actives have a fitted effect of over 55% in size
# [6] = qHTS assay for small molecule disruptors of the mitochondrial membrane potential - cell viability (AID 720634; calls by dose curve; also: nearly all actives have a fitted effect of over 20% in size)
# In short: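 Luminescence from CellTiter-Glo (ATP content) gave viability in HepG2 cells, read in the same wells as the MMP dye assay after 1 hr compound exposure at 37 C.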
# [7] = qHTS assay for identifying genotoxic compounds that show differential cytotoxicity against isogenic chicken DT40 cell lines with known DNA damage response pathways - wild type cell line (AID 743012); conditions: DT40 wild type chicken cells viability, CellTiter-Glo, 40 h; activity change, negative = cytotoxicity: at 68.4 µM (top of the series); also: nearly all actives have a fitted effect of over 60% in size
# In short: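 CellTiter-Glo luminescence readout of viability in wild type DT40 cells after 40 h compound exposure at 37 C/5% CO2; 300 cells/well; reagent incubated 30 min at room temperature before reading.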
# [8] = qHTS assay to test for compound auto fluorescence at 590 nm (red) in HEK293 cells (AID 720679); conditions: red autofluorescence 540/590 nm
# In short: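 Using HEK293 cells at 2,000 per well, the screen added 23 nL of each compound after cell attachment and incubated overnight (37C, 5% CO2). The plate reader then captured red-label fluorescence, Ex/Em 540/590nm.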
# [9] = qHTS assay to test for compound auto fluorescence at 590 nm (red) in HepG2 cell free culture (AID 720684); conditions: cell-free medium autofluorescence, red 540/590 nm
# In short: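 Cell-free; medium MEM + 10% FBS; compound or DMSO added by pintool; read Ex 540/Em 590 nm; Rose Bengal sodium as red reference fluorophore.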
# [10] = qHTS assay to test for compound auto fluorescence at 535 nm (green) in HepG2 cell free culture (AID 720686); conditions: Cell-free medium, green autofluorescence 485/535 nm
# [11] = ratio activity, negative = MMP loss: at 83.2 µM (top of the series) unless noted
# Potency is read from the fitted curve at half-maximal effect; tags tell the direction and shape of the fitted curve or compound fluorescence and quenching.
compound,measurement,setting,value
CC[C@H]1O[C@]2(CC[C@@H]1C)C[C@@H]1C[C@@H](C/C=C(\C)C[C@@H](C)/C=C/C=C3\CO[C@@H]4[C@H](O)C(C)=C[C@@H](C(=O)O1)[C@]34O)O2,Potency,[1],"inconclusive: 13.6 µM [cytotoxic, full curve]"
same,Potency,[2]; [11],active: 21.5 µM
same,Potency,[3],inconclusive: 10.9 µM
same,Potency,[4],"inconclusive: 24.3 µM [cytotoxic, full curve]"
same,Potency,[5],active: 13.7 µM
CCC(C)Nc1ccc(NC(C)CC)cc1 (stereo not given),Potency,[1],"inconclusive: 27.8 µM [cytotoxic, partial curve]"
same,Potency,[6],active: 44.1 µM
same,Potency,[3],inconclusive: 56 µM [cytotoxic]
same,Potency,[4],"inconclusive: 49.9 µM [cytotoxic, partial curve]"
same,Potency,[5],active: 44.5 µM
O=C(c1ccc(OCCN2CCCCC2)cc1)c1c(-c2ccc(O)cc2)sc2cc(O)ccc12,Potency,[1],active: 29.8 µM and active: 68.7 µM and active: 61.1 µM
same,Potency,[6],"inconclusive: 68.7 µM [cytotoxic, partial curve, poor fit]"
same,Potency,[4],"inconclusive: 26.8 µM [cytotoxic, single point] and inconclusive: 61.7 µM [cytotoxic, single point] and inconclusive: 61.6 µM [cytotoxic, single point]"
same,Potency,[5],"active: 23.9 µM and inconclusive: 55 µM [cytotoxic, single point] and inconclusive: 61.6 µM [cytotoxic, single point]"
Brc1ccccc1-c1ccccc1,Potency,[1],inconclusive: 72.8 µM [activator]
same,Potency,[6],"inconclusive: 51.6 µM [cytotoxic, partial curve, poor fit]"
same,Potency,[4],"inconclusive: 43.6 µM [activator, partial curve, poor fit]"
O=C(Nc1ccc([N+](=O)[O-])cc1Cl)c1cc(Cl)ccc1O,Potency,[1],active: 298 nM and active: 611 nM
same,Potency,[6],"inconclusive: 0.133 µM [cytotoxic, full curve, poor fit]"
same,activation,[3],inconclusive: -4.93% [phenotype inactive]
same,Potency,[4],"inconclusive: 95.2 nM [activator, full curve] and inconclusive: 174 nM [full curve]"
same,Potency,[5],"inconclusive: 0.268 µM [cytotoxic, full curve]"
same,Potency,[7],active: 422 nM and active: 770 nM
CCCCCCCCCCCCCCCCC(C(=O)O)C(O)(CC(=O)O)C(=O)O (stereo not given),Potency,[1],"inconclusive: 26.6 µM [cytotoxic, partial curve]"
same,Potency,[2]; [11],inconclusive: 1.19 µM [single point]
same,Potency,[3],"inconclusive: 23.9 µM [cytotoxic, partial curve]"
same,Potency,[4],inconclusive: 26.8 µM [cytotoxic]
same,Potency,[5],"inconclusive: 26.8 µM [cytotoxic, single point]"
CN1CCC[C@@H]1CCO[C@](C)(c1ccccc1)c1ccc(Cl)cc1,Potency,[1],"inconclusive: 13.3 µM [fluorescent, partial curve]"
same,Potency,[2]; [11],"inconclusive: 17.6 µM [activator, partial curve]"
O=C1Cc2cc(CCN3CCN(c4nsc5ccccc45)CC3)c(Cl)cc2N1,Potency,[1],inconclusive: 33.5 µM [single point]
same,Potency,[2]; [11],"inconclusive: 33.5 µM [rising, partial curve, poor fit]"
same,Potency,[3],active: 21.3 µM and inconclusive: 26.8 µM [cytotoxic]
same,Potency,[4],inconclusive: 26.8 µM [cytotoxic]
same,Potency,[5],"inconclusive: 26.8 µM [cytotoxic, single point]"
CCN=c1cc2oc3cc(NCC)c(C)cc3c(-c3ccccc3C(=O)OCC)c-2cc1C,Potency,[1],active: 48.4 µM
same,Potency,[2]; [11],"inconclusive: 2.16 µM [fluorescent, full curve] and inconclusive: 1.93 µM [fluorescent, full curve]"
same,Potency,[8],active: 4.47 µM [fluorescent] and active: 6.31 µM [fluorescent]
same,Potency,[9],active: 2.82 µM [fluorescent] and active: 3.55 µM [fluorescent]
same,Potency,[3],inconclusive: 48.8 µM [cytotoxic] and inconclusive: 49 µM [cytotoxic]
same,Potency,[4],"inconclusive: 54.7 µM [cytotoxic] and inconclusive: 61.7 µM [cytotoxic, single point]"
same,Potency,[5],active: 21.8 µM and active: 21.9 µM
OC1(c2ccc(Cl)c(C(F)(F)F)c2)CCN(CCCC(c2ccc(F)cc2)c2ccc(F)cc2)CC1,Potency,[1],inconclusive: 10.6 µM [cytotoxic]
same,Potency,[2]; [11],"inconclusive: 33.5 µM [inhibitor, single point]"
same,Potency,[3],"inconclusive: 9.52 µM [falling, full curve]"
same,Potency,[4],"inconclusive: 19 µM [cytotoxic, partial curve]"
CN(C[C@@H](CC[N+]12CCC(C3CCCCC3)(CC1)CC2)c1ccc(Cl)c(Cl)c1)C(=O)c1cc(C(F)(F)F)cc(C(F)(F)F)c1,Potency,[1],"inconclusive: 27.3 µM [cytotoxic, partial curve]"
same,Potency,[6],"inconclusive: 68.6 µM [cytotoxic, single point]"
same,Potency,[4],inconclusive: 24.5 µM [cytotoxic]
same,Potency,[5],active: 17.4 µM
Cc1cc(F)ccc1-c1cc(N2CC[C@@H](O)[C@H]2CO)ncc1N(C)C(=O)C(C)(C)c1cc(C(F)(F)F)cc(C(F)(F)F)c1,Potency,[1],"inconclusive: 24 µM [cytotoxic, full curve]"
same,Potency,[6],"inconclusive: 42.6 µM [cytotoxic, partial curve, poor fit]"
same,Potency,[4],"inconclusive: 27.1 µM [cytotoxic, partial curve]"
same,Potency,[5],active: 17.1 µM
Nc1ccc(N)c2ccccc12,Potency,[1],"inconclusive: 48.5 µM [cytotoxic, partial curve]"
same,Potency,[2]; [11],active: 0.153 µM
same,Potency,[10],"inconclusive: 8.91 µM [fluorescent, partial curve]"
same,Potency,[3],"inconclusive: 43.6 µM [cytotoxic, single point]"
same,Potency,[7],active: 15.3 µM
COc1ccccc1OCCNCC(O)COc1cccc2[nH]c3ccccc3c12 (stereo not given),Potency,[1],"inconclusive: 33.5 µM [falling, single point]"
same,Potency,[2]; [11],active: 23.7 µM
same,"activity change, negative = inhibition",[4],inconclusive: 10.5%
Cc1ccc(N)c(S(=O)(=O)O)c1,Potency,[1],"inconclusive: 24.6 µM [activator, partial curve]"
same,"ratio activity, negative = MMP loss",[2]; [11],inconclusive: -11.6% [at 95.3 µM]
CCCCOCCOCCOC(C)=O,Potency,[1],inactive
same,"ratio activity, negative = MMP loss",[2]; at 83.2 µM (top of the series),inactive: 9.49%
same,"ratio activity, negative = MMP loss",[2]; [11],inconclusive: 19.1%
same,Potency,[3],inactive
same,Potency,[7],inactive
C=C1C(CCl)(CCl)C2(Cl)C(Cl)C(Cl)C1(Cl)C2(Cl)Cl (stereo not given),Potency,[1],"inconclusive: 13.3 µM [cytotoxic] and inconclusive: 53.8 µM [cytotoxic, partial curve]"
same,Potency,[2]; [11],active: 3.76 µM and active: 4.28 µM
same,Potency,[3],"inconclusive: 13.4 µM [cytotoxic, full curve] and inconclusive: 54.3 µM [cytotoxic, single point]"
same,Potency,[4],"inconclusive: 21.3 µM [cytotoxic, partial curve] and inconclusive: 60.9 µM [cytotoxic, single point]"
same,Potency,[5],"inconclusive: 60.9 µM [cytotoxic, single point]"
same,Potency,[7],active: 4.73 µM and active: 30.3 µM
Cc1ccc(O)c(C(C)(C)C)c1,Potency,[1],"inconclusive: 27.3 µM [cytotoxic, partial curve] and inconclusive: 68.6 µM"
same,Potency,[6],active: 27.3 µM and active: 54.5 µM
same,Potency,[4],"inconclusive: 34.6 µM [cytotoxic, partial curve] and inactive"
CC(C)(C)c1ccc(O)c(C(C)(C)C)c1,Potency,[1],"inconclusive: 60.9 µM [cytotoxic] and inconclusive: 43.3 µM [cytotoxic, partial curve]"
same,Potency,[6],"active: 24.2 µM and inconclusive: 68.6 µM [cytotoxic, partial curve, poor fit]"
same,Potency,[3],"inconclusive: 43.5 µM [cytotoxic, partial curve] and inconclusive: 30.9 µM [cytotoxic, partial curve]"
same,Potency,[4],"inconclusive: 54.7 µM [cytotoxic] and inconclusive: 49 µM [cytotoxic, partial curve]"
same,Potency,[5],"inconclusive: 54.7 µM [cytotoxic, single point] and inconclusive: 54.9 µM [cytotoxic]"
same,Potency,[7],"inconclusive: 1.08 µM [rising, full curve]"
CN1CCN(c2ccccc2/C=C2\SCCN(c3ccc(Cl)c(Cl)c3)C2=O)CC1,Potency,[1],"inconclusive: 68.6 µM [cytotoxic, single point]"
same,Potency,[6],inconclusive: 68.6 µM [cytotoxic]
same,Potency,[3],"inconclusive: 19.5 µM [rising, partial curve]"
same,Potency,[4],"inconclusive: 54.9 µM [inhibitor, single point]"
same,Potency,[5],"inconclusive: 61.6 µM [cytotoxic, single point]"
CCCCCCCCCCn1cc[n+](CCCCCCCCCC)c1C,Potency,[1],"inconclusive: 48.6 µM [cytotoxic, partial curve]"
same,Potency,[2]; [11],active: 2.17 µM
same,Potency,[3],inconclusive: 24.6 µM [cytotoxic]
same,Potency,[4],"inconclusive: 21.9 µM [cytotoxic, full curve]"
same,Potency,[5],active: 13.8 µM
same,Potency,[7],active: 0.273 µM
